Experimental data taken from patent US20110136811A1, “PROKINETICIN 1 RECEPTOR” (published 2011).

Molecular target: rat PK1 receptor, endogenous in rat ileum (rat, UniProt Q8R416)
Assay: cell-based or functional assay

B1: PK1 ligand preparation (recombinant human Prokineticin 1 after enterokinase removal of the N-terminal FLAG tag) (ligand)
chain: AVITGACERDVQCGAGTCCAISLWLRGLRMCTPLGREGEECHPGSHKVPFFRKRKHHTCPCLPNLLCSRFPDGRYRCSMDLKNINF
- EC50 of the PK1-evoked increase in Isc, rat ileum mucosa: ~8.2 nM
